This note sets out measurements from the RNAGym collection of RNA variant scans (doi:10.1093/nar/gkz1192).

The source gives no read counts; variants with many changes may rest on few reads.

First the molecules themselves.
B1: CPEB3 Ribozyme (parent)
chain: UAACAGGGGGCCACAGCAGAAGCGUUCACGUCGCAGCCCCUGUCAGAUUCUGGUGAAUCUGCGAAUUCUGCUGUAUAUCUC

The variants in the series derive from B1. In words: self-cleavage, relative activity (ratio to wild type); higher = more cleavage; in vitro, sequencing. In short, it runs like this: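 Relative activity compares each variant's cleaved/total read fraction with that of the unmutated ribozyme. To get these fractions, barcoded CPEB3 ribozyme libraries from rounds of error-prone PCR were transcribed with T7 RNA polymerase for 5 hours at 37°C and then given 15 min of DNase I treatment before EDTA was added. The RNAs were reverse transcribed with template switching and sequenced on Illumina, and DNA sequencing linked barcodes to variants. A minimum of 5 reads applied, and three batches were averaged.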
Turning to UAACAGGGGGCCACAGCAAAAGCGAUCAUGUCGCAGCCCCUGUCAGAUUCUGGUGAAUCUGCGAAUUCUGCUGUAUGUCUC, the self-cleavage was found to be 0.18.

Consider UAACAGGGGGCCACAGCUGAAGCGUUCACGUCGCAGCCCCUGUCAGAUUCUGGUGAAUCUGCGAAAUCUGCUGUAUUUCUC, for which the self-cleavage is 0.18.

With UAACAGGGGGCCACAGCUGAAGCGUUCACGUCGCAGCCCCUGUCAGAUUCUGGUGAAUCUGCGAAUCCUGCUGUAUACCUC, the self-cleavage came out at 0.12.

In the case of UAACAGGGGGCCACAGCUGAAGCGUUCACGUCGCAGCCCCUGUCAGAUUCUGGCUAAUCUGCGAAUUCUGCUGUAUAUCUC, the self-cleavage is 0.23.

With UAACAGGGGGCCACAGCUGAAGCGUUCACGUCGCAGCCCCUGUCAGAUUCUGGUGAAGCUGCGAAUCCUGCUGUAUAUCUC, the self-cleavage was 0.14.

Take UAACAGGGGGCCACAGCUGAAGCGUUCACGUCGCAGCCCCUGUCAGAUUCUGGUGAAUCUGCGAAUUCUGCGGUACAUCUC: the self-cleavage stood at 0.19.

Regarding UAACAGGGGGCCACAGCUGAAGCGUUCACGUCGCAGCCCCUGUCAGAUUCUGGUGAAUCGGCGAAUUCUGCUGUAUAACUC, the self-cleavage was 0.2.

Take UAACAGGGGGCCACAGCUGAAGCGUUCACGUCGCAGCCCCUGUCAGAUUCUGGUGAACCUGCGAAUUCUGCUGUUUAUCUC: the self-cleavage came out at 0.43.

On to UAACAGGGGGCCACAGCAAAAGCGUUCGCGUCGCAGGCCCCGUCAGAUUCUGGUGAAUCUGCGAAUUCUGCCGUAUAUCUC, for which the self-cleavage was 0.02.

For the variant UAACAGGGGGCCACAGCAAUAGCGUUCACGUCGCAGCCCCUGUCAGAUUCUGGUGAAUCUGCGCAUUCUGCUGUAUCUCUC, the self-cleavage is 0.05.

In the case of UAACAGGGGGCCACAGCUGAAGCGUUCACGUCGCAGCCCCUGUCAGAUUCUGGGGAAUCUGCGAAUUCUGCAGUAUAUCCC, the self-cleavage is 0.47.

As to UAACAGGGGGCCACAGCUGAAGCGUUCACGUCGCAGCCCCUGUCAGAUUCUGGUGAAUCUGCGAAUUCAGCUGCAUAUCUG, the self-cleavage is 1.31.

For UAACAGGGGGCCACAGCAAAAGCGUUCGCGUCGCAGCCCCUGUCAGAUUCUGGUGAAUCUGCGAAUUCUGCUGCAUAUCUC, the self-cleavage came to 0.1.

In the case of UAACAGGGGGCCACAGCUGAAGCGUUCACGUCGCAGCCCCUGUCAGAUUCUGGUGAAUCCGCGAAUUCUGCCGUAUAUCUC, the self-cleavage is 0.09.

As for UAACAGGGGGCCACAGCAAAUGCGUUCACCUCGCAGCCCCCGUCAGAUUCUGGUGGAUCUGCGAAUUCUGCCGUAUGUCUC, the self-cleavage came out at 0.11.

Consider UAACAGGGGGCCACAGCUGAAGCGUUCACGUCGCAGCCCCUGUCAGAUUCCGGUGAAACUGCGAAUUCUGCAGUAUAUCUC, for which the self-cleavage turned out to be 0.06.

Turning to UAACAGGGGGCCACAGCUGAAGCGUUCACGUCGCAGCCCCUGUCAGAUUCUGGUGAAUCUGCGAAUUCUGCCGUAUGUCUC, the self-cleavage came out at 0.38.

Regarding UAACAGGGGGCCACAGCUGAAGCGUUCACGUCGCAGCCCCUGUCAGAUUCUGGCGAAUCUGCGAAUUCUGCCGUAUAUCUC, the self-cleavage amounted to 0.18.

UAACAGGGGGCCACAGCAAAAGCGUUCACGUCGCAGCGCCUGUCAGAUUCUGGUGAAUCUGCGAGUUCAGCUGUAUAUCUC: the self-cleavage was determined as 0.04.

For the variant UAACAGGGGGCCACAGCUGAAGCGUUCACGUCGCAGCCCCUGUCAGAUUCUGGCGAAUCUGCGAAUUCUCCUGUAUAUCUC, the self-cleavage turned out to be 0.44.

As for UAACAGGGGGCCACAGCAAAAGCAUUCACGUCGCAGCCCCUAUCAGAUUCUGGUGAAUCUGCGAGUCCUGCUGUAUAUCCC, the self-cleavage was found to be 0.06.

In the case of UAACAGGGGGCCACAGCUGAAGCGUUCACGUCGCAGCCCCUGUCAGAUUCCGGUGAAUCUGCGAAUUCUGCUGUAUACCUC, the self-cleavage worked out at 0.41.

For the variant UAACAGGGGGCCACAGCAAGAGCGUUCACGUCGCAGCCACUGUCAGAUUCUGGUGAAUCUGCGAAUUCUGCUGUAUAUCUC, the self-cleavage was determined as 0.21.

For the variant UAACAGGGGGCCACAGCAAAUGCGUUCACGUCGCAGCCCCUGUCAGAUUCAGGUGAAUCUGCGGAUUCUGCAGUAUAUUUC, the self-cleavage came out at 0.14.

For UAACAGGGGGCCACAGCUGAAGCGUUCACGUCGCAGCCCCUGUCAGAUUCUGGUGAACCUUCGAAUUCUGCUGUAUAUCUC, the self-cleavage amounted to 0.16.

As for UAACAGGGGGCCACAGCUGAAGCGUUCACGUCGCAGCCCCUGUCAGAUUCUGGUGAAUCUGCGAAUUCUGCAGUAUACCUC, the self-cleavage is 0.22.

Take UAACAGGGGGCCACAGCAAAAGCGUUCACGUCGCAGCCCCUGUCAGAUUCUGGUGAUUCUGCGAAUUCUGCCGCAUAUCUC: the self-cleavage was determined as 0.24.

Turning to UAACAGGGGGCCACAGCAACAGCGUUCACGUCGCAGCCCCUGUCGGAUUCUGGUGAAUCUGCGAAUUCUGCUGUAUAUUUC, the self-cleavage was found to be 0.07.

Take UAACAGGGGGCCACAGCUGAAGCGUUCACGUCGCAGCCCCUGUCAGAUUCCGGUGAAUCCGCGAAUUCCGCUGUACAUCUC: the self-cleavage was found to be 0.3.

Regarding UAACAGGGGGCCACAGCUGAAGCGUUCACGUCGCAGCCCCUGUCAGAUUCUGGCGAACCUGCGAAUUCUGCUGUAUAUCUC, the self-cleavage came out at 0.18.

For UAACAGGGGGCCACAGCAAAGGCGUUCACGUCGCAGCCCCUGUCAGGUUCUGGUGAAUCUGCGAAUUCAGCUGUAUAUCUC, the self-cleavage is 0.08.

In the case of UAACAGGGGGCCACAGCAAUAGCGUUCACGUCGCAGCCCCUGCCAGAUUCUGGUGAGUCUGCGAAUUCUGCUGUAUAUCUC, the self-cleavage worked out at 0.12.

For UAACAGGGGGCCACAGCUGAAGCGUUCACGUCGCAGCCCCUGUCAGAUUCUGGUGAAUCUGCGAAUUCAGCUGUAUAUCAC, the self-cleavage was determined as 1.22.

In the case of UAACAGGGGGCCACAGCUGAAGCGUUCACGUCGCAGCCCCUGUCAGAUUCUGGUGAAUCUGCGAAUUCAGCUGUAUAUCCC, the self-cleavage was 1.2.
